# Reference: the supplement of paper PMC4166925
# ± gives the standard deviation of the averaged measurements. Over roughly 33,000 sequences, “E-score (dimensionless, -0.5 to 0.5)” has its median near -0.046; the highest 2% begin near 0.36. The list shows a part of the results.
# Tested on: T1, SpTbr T-box DNA-binding domain (GST fusion)
# T1 sequence: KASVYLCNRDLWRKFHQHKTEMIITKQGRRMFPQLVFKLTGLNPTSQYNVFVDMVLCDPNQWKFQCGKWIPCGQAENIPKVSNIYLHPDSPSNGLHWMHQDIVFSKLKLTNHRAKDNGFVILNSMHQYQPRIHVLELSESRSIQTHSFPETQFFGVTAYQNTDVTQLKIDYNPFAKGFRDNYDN
# Experiment: PBM E-score of 8-mer (E-score (dimensionless, -0.5 to 0.5)); Tbr is Tbrain of the sea star Patiria miniata (Pm) or the sea urchin Strongylocentrotus purpuratus (Sp); higher = stronger binding preference; most listed sequences are background and not binding sites
# Settings: the construct has about 5 more residues each side
# Protocol: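 Universal protein-binding microarray (Agilent AMADID 016060, 60-bp probes with a 35-bp variable region) incubated with 200 nM GST-fused Strongylocentrotus purpuratus Tbr T-box DNA-binding domain (residues 362-554) in PBS pH 7.5. Scored for every ungapped 8-mer (given with its reverse complement) as E-score (range -0.5 to 0.5; >0.45 counts as bound) and Z-score of median probe intensity. Two replicate arrays (datasets 1 and 2).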
# 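Also: protein at 200 nM in PBS on universal double-stranded arrays.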
row,Sequence,PBM E-score of 8-mer
1,CAAATCTC,0.106 ± 0.047
2,GCACAACC,-0.0068 ± 0.068
3,CAGTTGCC,0.111 ± 0.01
4,GAAACGCC,0.11 ± 0.026
5,AGTTTCGG,-0.357 ± 0.028
6,TGCAGCAA,-0.15 ± 0.046
7,AGACAGGA,-0.159 ± 0.04
8,CCGGGGGA,-0.225 ± 0.036
9,GAGGCATC,-0.224 ± 0.072
10,ATCGCTGC,0.0231 ± 0.034
11,ATGCAATG,-0.202 ± 0.0094
12,CATTATAC,0.119 ± 0.022
13,CTCATTCA,0.019 ± 0.071
14,ATGAGCCC,-0.216 ± 0.036
15,GCGTTGGA,0.107 ± 0.067
16,CCAGCCTC,-0.228 ± 0.12
17,CTTAAGAA,-0.0507 ± 0.029
18,AAACGGAC,-0.158 ± 0.0066
19,GAGCCTGC,-0.0257 ± 0.039
20,TAAAGCCA,-0.263 ± 0.037
21,TCATGTCA,-0.00108 ± 0.05
22,CCAAGTCC,-0.0836 ± 0.022
23,AAGGCGCC,0.224 ± 0.011
24,CTGGGATC,-0.126 ± 0.032
25,GCCCGGAA,-0.167 ± 0.014

row,Sequence,PBM E-score of 8-mer
1,CAGAATAG,-0.224 ± 0.025
2,ACGTCCTG,0.0542 ± 0.055
3,CTAACATC,-0.0989 ± 0.068
4,ACAAGGCT,0.0374 ± 0.071
5,CCACCGCG,0.0782 ± 0.0015
6,TACGTCGA,-0.0607 ± 0.029
7,TACTCCGA,-0.0262 ± 0.0085
8,CCAGTGAG,-0.224 ± 0.14
9,CCTGTCCA,0.0557 ± 0.043
10,AATCGTCC,-0.238 ± 0.015
11,CGATGCCC,-0.102 ± 0.011
12,ATTGGAGA,-0.278 ± 0.019
13,AATTGGAA,0.0127 ± 0.0018
14,CGGTGCGA,0.339 ± 0.0046
15,ACAACTCA,0.216 ± 0.036
16,CCAGACGG,-0.0627 ± 0.096
17,AATTCGAT,-0.0799 ± 0.002
18,GTACTCAA,-0.114 ± 0.041
19,ACGTGGGA,0.203 ± 0.026
20,AGGCTATC,-0.0294 ± 0.012
21,AGAGGTTA,-0.141 ± 0.0069
22,AATCACCG,0.0191 ± 0.03
23,AATAGGAA,-0.171 ± 0.049
24,TGCCGAAA,0.0892 ± 0.013
25,CCGCTATA,0.102 ± 0.055

row,Sequence,PBM E-score of 8-mer
1,GTAGCCAA,-0.0866 ± 0.0081
2,CCAGAGAG,-0.184 ± 0.12
3,CGCTGGCC,-0.032 ± 0.027
4,AGTATAAG,-0.15 ± 0.049
5,CGACAGTC,0.184 ± 0.048
6,CGAGAGTA,0.0304 ± 0.018
7,AGCAGCTG,0.148 ± 0.0082
8,AAACCGTT,0.025 ± 0.032
9,GTAGGCGA,0.117 ± 0.029
10,CAGTGTGC,0.106 ± 0.0063
11,ATAAGATA,-0.122 ± 0.037
12,AGGATGGC,-0.0145 ± 0.041
13,ACACTCCG,0.367 ± 0.023
14,CAGAGTGA,-0.0823 ± 0.057
15,AACTCGAT,0.0475 ± 0.082
16,CTCATTGA,0.032 ± 0.034
17,AAGACCAC,-0.0362 ± 0.12
18,CGATAACG,0.201 ± 0.0052
19,ACCAAAAT,-0.0134 ± 0.0022
20,CATGCATC,-0.119 ± 0.13
21,ACCCCCCC,-0.226 ± 0.0096
22,ACCCCGGC,0.0161 ± 0.028
23,CTCAAGTA,0.0665 ± 0.065
24,AGGCCAGC,-0.0726 ± 0.023
25,GATAACGC,0.288 ± 0.011

row,Sequence,PBM E-score of 8-mer
1,CAGATACA,0.0493 ± 0.047
2,TAGGTACA,-0.3214 ± 0.0011
3,CAACATCA,0.0114 ± 0.034
4,CCTGCGGA,-0.0459 ± 0.096
5,CGCTGCCA,0.195 ± 0.025
6,GTCTTTGA,-0.143 ± 0.029
7,CCACGATC,-0.062 ± 0.036
8,ACGTTTAT,-0.0919 ± 0.051
9,AGCAGACG,-0.0688 ± 0.033
10,GATGAGGA,-0.159 ± 0.0045
11,GGATTGAA,-0.143 ± 0.059
12,AGGCGTTC,0.125 ± 0.024
13,ATTCGAGC,-0.0775 ± 0.049
14,TATAGACA,0.00469 ± 0.045
15,GTATGAAA,-0.216 ± 0.12
16,GGGGGTAA,-0.19 ± 0.0068
17,AAGTTAGT,-0.13 ± 0.0072
18,ACAGGGTA,-0.155 ± 0.051
19,GGGGGGGA,-0.275 ± 0.03
20,AAGTAACG,0.0593 ± 0.0058
21,TCACATGA,0.14 ± 0.0023
22,GAATACGA,-0.0226 ± 0.042
23,GGGGACAA,-0.147 ± 0.094
24,AACTACTG,-0.12 ± 0.084
25,CACGAGTA,-0.0718 ± 0.016

row,Sequence,PBM E-score of 8-mer
1,ATGGATAG,-0.183 ± 0.029
2,AGTTGCGC,0.13 ± 0.063
3,ATAGACAA,-0.2 ± 0.036
4,CCCCTGCC,-0.311 ± 0.019
5,AACAGGGT,-0.0954 ± 0.061
6,AGTTTAAT,-0.0467 ± 0.1
7,TCTTGGCA,0.0168 ± 0.0054
8,AATCTAAG,-0.234 ± 0.034
9,AAACCGCT,-0.032 ± 0.035
10,ACATGGTC,-0.202 ± 0.025
11,CCTGAGCC,-0.22 ± 0.02
12,CCAACATC,0.0244 ± 0.019
13,AAACGAGC,-0.112 ± 0.052
14,ACACGTCT,0.342 ± 0.0038
15,ATTCACCA,0.052 ± 0.022
16,CTTGTACA,-0.0795 ± 0.0086
17,CTACACCA,0.116 ± 0.0061
18,ACGTGTGG,0.416 ± 0.00045
19,CTCGGCAC,0.229 ± 0.012
20,CGTTCTGC,-0.0627 ± 0.041
21,ACCAAGCC,-0.13 ± 0.029
22,AGTTGTGG,0.164 ± 0.06
23,AAGGCTAC,-0.147 ± 0.074
24,CCCAGAAA,-0.216 ± 0.045
25,GGGCAAAC,-0.205 ± 0.043

row,Sequence,PBM E-score of 8-mer
1,TAGCCGGA,-0.13 ± 0.03
2,AACGACAG,-0.00899 ± 0.00023
3,GACGCCAA,0.229 ± 0.018
4,GAAGAGTA,-0.126 ± 0.005
5,CCAAGCTA,-0.14 ± 0.026
6,AAATAGAG,-0.0872 ± 0.04
7,CGGGAACA,0.128 ± 0.014
8,CCGATTTA,-0.187 ± 0.07
9,ACCTAAGA,-0.115 ± 0.051
10,ACAAATCT,0.0327 ± 0.015
11,ATACCATG,-0.114 ± 0.05
12,AGGAATAA,-0.191 ± 0.054
13,ACCCTGCC,0.116 ± 0.088
14,GGCTCGCA,0.137 ± 0.038
15,ATTGGAAG,-0.328 ± 0.053
16,GCACAATA,-0.0327 ± 0.036
17,GATGCGAA,0.202 ± 0.066
18,ATGTATCC,-0.195 ± 0.041
19,CGACTTAA,0.16 ± 0.029
20,CGAACTGC,0.0742 ± 0.014
21,GGCAATAA,0.0317 ± 0.016
22,CTCCTGCC,-0.0668 ± 0.12
23,AGAAACTG,-0.216 ± 0.0078
24,TGTCGAAA,0.158 ± 0.036
25,AGTAAGGG,-0.133 ± 0.026

row,Sequence,PBM E-score of 8-mer
1,ATCTAGTG,-0.0127 ± 0.054
2,CAGATTGA,-0.076 ± 0.021
3,CAATAGTG,0.117 ± 0.0084
4,GGTGGAGA,0.0705 ± 0.0099
5,CTGGTGAC,0.162 ± 0.074
6,GGAAAGCA,-0.0208 ± 0.033
7,AGGGGTGG,0.147 ± 0.069
8,GATCAAGC,-0.0785 ± 0.064
9,CAAGACTG,-0.194 ± 0.02
10,CATCCGTA,-0.172 ± 0.066
11,GAGCACCA,-0.0444 ± 0.098
12,CACACGTG,0.383 ± 0.0078
13,CCGCCAAG,0.1155 ± 0.00084
14,CGCCTGGC,0.187 ± 0.036
15,ACAAGACG,-0.0802 ± 0.091
16,GGGATGAA,-0.231 ± 0.0083
17,AAAACTTC,-0.0919 ± 0.018
18,AGTGCTTC,-0.0466 ± 0.033
19,GAAGGTGA,0.348 ± 0.035
20,ACTACTGA,-0.275 ± 0.016
21,AGCATTAC,-0.167 ± 0.045
22,ATAAACCA,-0.222 ± 0.084
